Source: the supplement of paper PMC8728848
The list shows a part of the results.

Experiments:
Experiment in all cases: glycan array binding signal (z-score within array); higher = stronger binding
Conditions in all cases: glycan notation: IUPAC condensed, linker removed
[1] = target: Man(a1-3)[Man(a1-6)]Man(a1-6)[Man(a1-3)]Man
Outline: (§1)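 Columns mapping to the same glycan were averaged after glycan names were converted to IUPAC-condensed notation. The data come from 3228 arrays in the Consortium for Functional Glycomics database, limited to those with an available protein sequence. Binding is reported as a within-array Z-score averaged across arrays of one protein sequence and across linkers.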

[2] = target: Man(a1-3)[Man(a1-6)]Man(a1-6)[Man(a1-3)]Man(b1-4)GlcNAc(b1-4)GlcNAc
Outline: as §1

[3] = target: Man(a1-3)[Man(a1-6)]Man(b1-4)GlcNAc(b1-4)GlcNAc
Outline: as §1

[4] = target: Man(a1-6)Man
Outline: as §1

[5] = target: Man(b1-4)GlcNAc
Outline: as §1

[6] = target: Neu5Ac(a2-3)Gal
Outline: as §1

[7] = target: Neu5Ac(a2-3)Gal(b1-3)GalNAc
Outline: as §1

[8] = target: Neu5Ac(a2-3)Gal(b1-3)GalNAc(b1-3)Gal(a1-4)Gal(b1-4)Glc
Outline: as §1

[9] = target: Neu5Ac(a2-3)Gal(b1-3)GalNAc(b1-3)Gal(b1-4)GlcNAc
Outline: as §1

[10] = target: Neu5Ac(a2-3)Gal(b1-3)GalNAc(b1-4)[Neu5Ac(a2-3)]Gal(b1-4)Glc
Outline: as §1

[11] = target: Neu5Ac(a2-3)Gal(b1-3)GalNAc6S
Outline: as §1

[12] = target: Neu5Ac(a2-3)Gal(b1-3)GlcNAc
Outline: as §1

[13] = target: Neu5Ac(a2-3)Gal(b1-3)GlcNAc(b1-3)Gal(b1-3)GlcNAc
Outline: as §1

[14] = target: Neu5Ac(a2-3)Gal(b1-3)GlcNAc6S
Outline: as §1

[15] = target: Neu5Ac(a2-3)Gal(b1-3)[Fuc(a1-4)]GlcNAc
Outline: as §1

[16] = target: Neu5Ac(a2-3)Gal(b1-3)[Fuc(a1-4)]GlcNAc(b1-3)Gal(b1-4)[Fuc(a1-3)]GlcNAc
Outline: as §1

[17] = target: Neu5Ac(a2-3)Gal(b1-3)[Neu5Ac(a2-3)Gal(b1-4)]GlcNAc
Outline: as §1

[18] = target: Neu5Ac(a2-3)Gal(b1-3)[Neu5Ac(a2-6)]GalNAc
Outline: as §1

[19] = target: Neu5Ac(a2-3)Gal(b1-4)Glc
Outline: as §1

[20] = target: Neu5Ac(a2-3)Gal(b1-4)GlcNAc
Outline: as §1

[21] = target: Neu5Ac(a2-3)Gal(b1-4)GlcNAc(b1-2)Man(a1-3)[GlcNAc(b1-2)Man(b1-4)GlcNAc(b1-2)Man(a1-6)]Man(b1-4)GlcNAc(b1-4)GlcNAc
Outline: as §1

[22] = target: Neu5Ac(a2-3)Gal(b1-4)GlcNAc(b1-2)Man(a1-3)[Neu5Ac(a2-6)Gal(b1-4)GlcNAc(b1-2)Man(a1-6)]Man(b1-4)GlcNAc(b1-4)GlcNAc
Outline: as §1

[23] = target: Neu5Ac(a2-3)Gal(b1-4)GlcNAc(b1-3)Gal(b1-3)GlcNAc
Outline: as §1

[24] = target: Neu5Ac(a2-3)Gal(b1-4)GlcNAc(b1-3)Gal(b1-4)GlcNAc
Outline: as §1

[25] = target: Neu5Ac(a2-3)Gal(b1-4)GlcNAc(b1-3)Gal(b1-4)GlcNAc(b1-3)Gal(b1-4)GlcNAc
Outline: as §1

[26] = target: Neu5Ac(a2-3)Gal(b1-4)GlcNAc(b1-3)Gal(b1-4)[Fuc(a1-3)]GlcNAc
Outline: as §1

[27] = target: Neu5Ac(a2-3)Gal(b1-4)GlcNAc(b1-6)[Gal(b1-3)]GalNAc
Outline: as §1

[28] = target: Neu5Ac(a2-3)Gal(b1-4)GlcNAc(b1-6)[Neu5Ac(a2-3)Gal(b1-3)]GalNAc
Outline: as §1

[29] = target: Neu5Ac(a2-3)Gal(b1-4)GlcNAc6S
Outline: as §1

[30] = target: Neu5Ac(a2-3)Gal(b1-4)[Fuc(a1-3)]GlcNAc
Outline: as §1

[31] = target: Neu5Ac(a2-3)Gal(b1-4)[Fuc(a1-3)]GlcNAc(b1-3)Gal
Outline: as §1

[32] = target: Neu5Ac(a2-3)Gal(b1-4)[Fuc(a1-3)]GlcNAc(b1-3)Gal(b1-4)GlcNAc
Outline: as §1

[33] = target: Neu5Ac(a2-3)Gal(b1-4)[Fuc(a1-3)]GlcNAc(b1-3)Gal(b1-4)[Fuc(a1-3)]GlcNAc(b1-3)Gal(b1-4)[Fuc(a1-3)]GlcNAc
Outline: as §1

[34] = target: Neu5Ac(a2-3)Gal(b1-4)[Fuc(a1-3)]GlcNAc(b1-6)[Gal(b1-3)]GalNAc
Outline: as §1

[35] = target: Neu5Ac(a2-3)Gal(b1-4)[Fuc(a1-3)]GlcNAc6S
Outline: as §1

[36] = target: Neu5Ac(a2-3)Gal6S(b1-4)GlcNAc
Outline: as §1

[37] = target: Neu5Ac(a2-3)Gal6S(b1-4)[Fuc(a1-3)]GlcNAc
Outline: as §1

B1: Mannose Binding Protein (Lactobacillus plantarum) (protein)
chain: AERSEAALTHVDKDNFLKYFSLNGSATYDAKTGIVTITPNQNNQVGNFSLTSKIDMNKSFTLTGQVNLGSNPNGADGIGFAFHSGNTTDVGNAGGNLGIGGLQDAIGFKLDTWFNSYQAPSSDKNGSEISSTNSNGFGWNGDSANAPYGTFVKTSNQEISTANGSKVQRWWAQDTGESQALSKADIDGNFHDFVVNYDGATRTLTVSYTQASGKVLTWKTTVASSYQAMAMVVSASTGAAKNLQQFKLTSFDFQEAATVNVKYVDTTGHQLAQG
glycan array binding signal (z-score) [1]: 1.77 | glycan array binding signal (z-score) [2]: -0.264 | glycan array binding signal (z-score) [3]: -0.294 | glycan array binding signal (z-score) [4]: -0.501 | glycan array binding signal (z-score) [5]: 0.193 | glycan array binding signal (z-score) [6]: -0.349 | glycan array binding signal (z-score) [7]: -0.197 | glycan array binding signal (z-score) [8]: 1.01 | glycan array binding signal (z-score) [9]: -0.704 | glycan array binding signal (z-score) [10]: 0.338 | glycan array binding signal (z-score) [11]: 0.283 | glycan array binding signal (z-score) [12]: -0.018 | glycan array binding signal (z-score) [13]: -0.526 | glycan array binding signal (z-score) [14]: -0.327 | glycan array binding signal (z-score) [15]: 0.369 | glycan array binding signal (z-score) [16]: -0.477 | glycan array binding signal (z-score) [17]: -0.43 | glycan array binding signal (z-score) [18]: -0.113 | glycan array binding signal (z-score) [19]: -0.174 | glycan array binding signal (z-score) [20]: -0.332 | glycan array binding signal (z-score) [21]: 0.211 | glycan array binding signal (z-score) [22]: -0.211 | glycan array binding signal (z-score) [23]: -0.484 | glycan array binding signal (z-score) [24]: -0.51 | glycan array binding signal (z-score) [25]: -0.035 | glycan array binding signal (z-score) [26]: -0.472 | glycan array binding signal (z-score) [27]: -0.479 | glycan array binding signal (z-score) [28]: 0.41 | glycan array binding signal (z-score) [29]: -0.106 | glycan array binding signal (z-score) [30]: -0.561 | glycan array binding signal (z-score) [31]: -0.14 | glycan array binding signal (z-score) [32]: 1.15 | glycan array binding signal (z-score) [33]: -0.013 | glycan array binding signal (z-score) [34]: 1.06 | glycan array binding signal (z-score) [35]: 0.405 | glycan array binding signal (z-score) [36]: -0.421 | glycan array binding signal (z-score) [37]: -0.349
